# Assay results from the RNAGym collection of RNA variant scans (doi:10.1073/pnas.2313332121).
# Variants at the background level are over-represented here.
# B1: TPR 5TU (parent)
# chain: GGAUCUUCUCGAUCUAACAAAAAAGACAAAUCUGCCACAAAGCUUGAGAGCAUCUUCGGAUGCAGAGGCGGCAGCCUUCGGUGGCGCGAUAGCGCCAACGUUCUCAACUAUGACACGCAAAACGCGUGCUCCGUUGAAUGGAGUUUAUCAUG
# Variants of: B1
# Test: polymerase ribozyme fitness, log enrichment relative to wild type (log ratio); higher = more active; in vitro selection for triplet polymerase activity
# How it was run: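 Input and output libraries were sequenced on Illumina after a single in vitro selection round, run in triplicate on PCR-built, transcribed mutant libraries of each subunit of a heterodimeric triplet polymerase ribozyme. Selection annealed libraries to a biotinylated primer, the partner subunit and triplets, incubated them frozen at −7 °C, then gel-excised extended constructs for streptavidin-bead capture and RT-PCR. Genotypes with ≥10 input reads and ≥1 read per output were kept. Fitness is the logarithm, taken in base 2, of genotype enrichment divided by wild-type enrichment, using inverse-variance-weighted replicate averages.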
row,Variant,polymerase ribozyme fitness (log ratio)
1,A16C C32U U44G G71A C87G C95U A98G A110U C116U,≤ -4.2
2,A16C C35A C54G,≤ -4.2
3,A16C C35G G50A G58A G80U C95A C105U A113C U151A,≤ -4.2
4,A16C C36A C76A A91G C105U A150G,≤ -4.2
5,A16C C43A U77G C95U U102A C105U G141U,≤ -4.2
6,A16C C43U A49C G71C U104A C125U,≤ -4.2
7,A16C C51A C54G C57A C96A G117U U135G,≤ -4.2
8,A16C C51G C87A C95U,≤ -4.2
9,A16C C51U G84U U135A,-3.41
10,A16C C54G G88A C95G,≤ -4.2
11,A16C C75G C76G G92C C108A,≤ -4.2
12,A16C C85U A106U G126A,-3.28
13,A16C G25A C75U G83C A98C A115C C116G,≤ -4.2
14,A16C G34C C35G A73U C87A A119C A142U,≤ -4.2
15,A16C G42A,≤ -4.2
16,A16C G48A A66U C75U C87G,≤ -4.2
17,A16C G48A G62A G81U C85A U102G A137G,≤ -4.2
18,A16C G48A U61A U101G A137G U146G,≤ -4.2
19,A16C G50C G59C,≤ -4.2
20,A16C G58C A60G G83U C116U,-0.784
21,A16C G59C,-0.987

row,Variant,polymerase ribozyme fitness (log ratio)
1,A16C G62C,-2.47
2,A16C G84A C105G C114U C125A U144A U151G,≤ -4.2
3,A16C G86U,-2.65
4,A16C G88A C116G,-4.19
5,A16C U31A G58C G80C C95U A122G G143A,≤ -4.2
6,A16C U31C G50A G86A,-3.16
7,A16C U31G A47C C76A C85U A89G,≤ -4.2
8,A16C U44A,≤ -4.2
9,A16C U55A,-1.28
10,A16C U61A G67A C87U A107U,≤ -4.2
11,A16C U90C C95U U145A,≤ -4.2
12,A16C U101G,-0.303
13,A16C U101G U127A,-3.71
14,A16C U151A,≤ -4.2
15,A16G A17C U31A U55G C57G A115C U135A,-3.86
16,A16G A17U A26C G42C C43U G70A U102C G140C,≤ -4.2
17,A16G A17U A41U C93U C125U U134G,-4.05
18,A16G A20C U78A C87U,≤ -4.2
19,A16G A20U A21U C85A U109G,≤ -4.2
20,A16G A20U G46U A60G A138C,≤ -4.2
21,A16G A22U G94A,-0.896

row,Variant,polymerase ribozyme fitness (log ratio)
1,A16G A23C G84A A106G A107G C118U C129A U146G,≤ -4.2
2,A16G A23G A26C C51G G67C C96U C108U A110U,≤ -4.2
3,A16G A23U A28G C35U U82A,≤ -4.2
4,A16G A24U G46U C85G A106C U109A C114U C118G A120G,≤ -4.2
5,A16G A26U G50C A66G C87G,≤ -4.2
6,A16G A26U U31C U82A A106U C131A U139G G141C,≤ -4.2
7,A16G A29U A40U G84A C129G U146C,≤ -4.2
8,A16G A29U A47C G48C C57A G124U C125G C131U,≤ -4.2
9,A16G A37U A60U G71C G84A C116A G124C U146G,≤ -4.2
10,A16G A39U C43G G50U G67C U109A U134A U139C,≤ -4.2
11,A16G A41C U55G A142C,-3.52
12,A16G A41G U53G A73U G88A C125U G133U,≤ -4.2
13,A16G A41U C43U U61G A73G G86A,≤ -4.2
14,A16G A47C U53C U102G,≤ -4.2
15,A16G A49C G58C G83C,≤ -4.2
16,A16G C18G C27U A66U G83U C108U C129A A138C U148G,≤ -4.2
17,A16G C18U A24U C38U A49C G50A G88C C105U G117U,≤ -4.2
18,A16G C27G C93A G112C,≤ -4.2
19,A16G C27G U44A C79G,≤ -4.2
20,A16G C35U,-1.36
21,A16G C35U A66G C76A C79G G83U,≤ -4.2

row,Variant,polymerase ribozyme fitness (log ratio)
1,A16G C35U C116G,-1.98
2,A16G C35U G62U G71A C85G U104A,≤ -4.2
3,A16G C36A G80U C99U G126C U148C,≤ -4.2
4,A16G C38G A49U U55A C85U U139A,≤ -4.2
5,A16G C43A C79G C85U A106G C118U G141C,≤ -4.2
6,A16G C43A U55A G80C G117U G133C,≤ -4.2
7,A16G C43G U61G,≤ -4.2
8,A16G C51A U55A C72U G84C G88U C116A G133C A147U U151A,≤ -4.2
9,A16G C57A,-0.592
10,A16G C57A G86C G124U,-3.24
11,A16G C72U C87G,≤ -4.2
12,A16G C76G C87U A120U A138G,≤ -4.2
13,A16G C79A C93U A115U C129U U144C,≤ -4.2
14,A16G C85U A91C C103U A106G U127C U151A,≤ -4.2
15,A16G C87U,-1.85
16,A16G C93G A113U,≤ -4.2
17,A16G C116A,0.283
18,A16G G46U,-1.19
19,A16G G50A G65C C93U A115U U134A,≤ -4.2
20,A16G G50C C54G U61A G83C C85U U104G G128U,≤ -4.2
